# This is one part of the list.
# Test system: PF3D7_0420300 AP2 domain 1 (GST-tagged)
# Experiment: gcPBM binding intensity (ln(normalized median fluorescence intensity)); higher = stronger DNA binding
# Summary of the method: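 Plasmodium falciparum DNA-binding domains carrying a GST tag were expressed in E. coli and applied for 1 h, at about 25 μg on average, to an Agilent 4 × 180k array. The array held primer-extended double-stranded 36-bp intergenic genomic probes together with negative controls, and binding took place in 1× PBS with 1% milk, 0.2 mg/ml BSA, 0.5% salmon testes DNA and 0.03% Triton X-100. An Alexa488 anti-GST antibody detected bound protein, and the array was scanned at 488 nm. Binding intensity is taken as the highest Masliner-normalised natural-log median intensity across replicate spots of either probe orientation.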
row,Sequence,gcPBM binding intensity (ln)
1,AGTAATATAATATAAGCACACGTGTATTTATTTAGT [CACACA_site4246],9.54
2,TACAAAATAAAAATAATTCTTTCAAAAAATAATAAA [XGTACX_negctrl_site368],8.91
3,TGGGAGCACAGACACACACACACACCCATATATATA [CACACA_site335],10.1
4,GTATAAAAGTAATGTAGTACTTATATATTTTTATTT [XGTACX_site8975],9.1
5,TCCTTATATTGGCACACACACACAATAAAATGAAAA [CACACA_site4715],9.97
6,GGTTGCTTCAGTGAATGTACATAGTGGTAAACAAGC [XGTACX_site166],9.29
7,TGCACATTTATGTAACGTACAAAATATAATATGTTA [XGTACX_site8255],9.07
8,GTATATAATATTAGTGCACACACAAAAATGTACTAA [CACACA_site8112],9.61
9,GAAATAATAAATTAAAAATCGTTTATAACATTTAAC [CACACA_negctrl_site425],9.02
10,ATTTTCTTTCTATGCACACGCACGTATTTGCACCCA [CACACA_site3350],9.36
11,AGTTTAATATAAAATACACACTACTCTTATAAATAT [CACACA_site6803],9.23
12,CTTTTTTTTTGATGTTGTACATATATATTATATAAT [XGTACX_site1321],9.36
13,TAAGGACTAATATTTGAACACACATATAATATATAC [CACACA_site9325],9.51
14,TATATATTTGTTCACACACACACAAAAAAAAAAAAA [CACACA_site2475],9.87
15,CATATATATATATATATATATATATTTATTTATTTA [TGCATGCA_negctrl_site165],8.8
16,GTCATCAAGTATTAAGTGCATTAAAAATAAAATATA,9.05
17,TTAAAAGAAAATAACACACACAAAAAAAAAAAAAAA [CACACA_site2117],9.49
18,AACATAAGTAAGAATACATGCGGAAATTATATAGAA [TGCATGCA_site112],9.53
19,TATAAATTTAAAATGACACACACTAAAGTTATTTAA [CACACA_site6700],9.3
20,TAAATATTATAAATGATACACACTTAAAATACTCAC [CACACA_site2710],9.59
21,TCCCTTAAAATGATATGTACATAAAAATAAAAAAAA [XGTACX_site836],9.05
22,ACTAACATATATTCAACACACATATACCTTCAACCC [CACACA_site3011],9.72
23,TATATATATATATACACACACACATATATATATATA [CACACA_site774],9.72

row,Sequence,gcPBM binding intensity (ln)
1,CCCATTTAATATTGAGTGCATTTAAATAAATGTATT,9.14
2,TTTTACAAAGTATGATGTACAAGTATATATAAATAT [XGTACX_site2072],9.04
3,TACATGAATAAACTTACACACACCCATGCATACATA [CACACA_site97],9.87
4,TGAAAAGGAAAATTTTGTACATATACATCAAGGATA [XGTACX_site656],9.17
5,AAAAAAAAGAATTTACGTACTTATTATTTATATTTT [XGTACX_site5701],9.24
6,ACTTTTTATTTTTTACTATATATATATATATATATG [TGCATGCA_negctrl_site463],9.65
7,TTTTGTTTTAAAAGTACACACTTTTAATTAGATTTC [CACACA_site4788],9.15
8,AAAATACACAACATATATATATATATATATATATAT [XGTACX_negctrl_site21],9.21
9,TGATCAATGGATTTAACACACAAAAAAAAAAAAAAA [CACACA_site3845],9.11
10,ATTTATTTTTTACATTGTACATATTTATTCCTTTTA [XGTACX_site8028],9.56
11,TATAACATTTTTTTCAAAATAGCTTTAGAAATAAAG [CACACA_negctrl_site718],8.78
12,TTTTTTTTTTTTTTTGCATGCAGGTTTTTACCCCTT [TGCATGCA_site381],8.92
13,TTATTTTCAAAATGTTGTACACACAAAAAAAAAAAA [XGTACX_site3151],9.25
14,TTTTTTTTCTTCAAGCGTACTTATTTGTAGAAAAAA [XGTACX_site1728],8.73
15,TATGTATATATATAAAGTACGCAAATTTATAATAAG [XGTACX_site8744],9.35
16,ATATGTGGAAATAGAGCACACATATATATAATATAT [CACACA_site8194],9.58
17,TTCTTTTCTTTTTTCTTTTTTTTTTTCTTTTCTTTT [GTGCAC_negctrl_site630],9.46
18,AAAAAAAAAAAAAAAACATGCAAAATAATATATATA [TGCATGCA_site68],9.38
19,AGAAAAGGACATATATGTACTTATCAATATAGAAAC [XGTACX_site1042],9.38
20,TCACATATGTTCCATTGTACTTGTAGTAATTTTTTC [XGTACX_site6473],9.33
21,GTAATATGTATCCATACACACATACATTTTATTTGC [CACACA_site4640],9.48
22,ATAAAATGAAATATATGTACGCATCACTTGTTGAAC [XGTACX_site4530],9.31
23,TAATTAAAAAATAAAAAAAAAAAAAATTAAAACAAA [CACACA_negctrl_site500],9.2

row,Sequence,gcPBM binding intensity (ln)
1,TTCTTTTTAATTTATTTTTTCTTATAACAAGAAAAC [CACACA_negctrl_site201],8.93
2,GTACATACATAAAACACACACATATATATATATATA [CACACA_site1826],9.58
3,AAAACAATAATATACTGTACATATATATAATAACAT [XGTACX_site6188],9.65
4,AAATTCAGGTTATATTTTAATTTTTTTTTGTTTTTT [CACACA_negctrl_site924],9.31
5,AATTTTTCATCAAGTTGTACAATTATTTGTTTGTTT [XGTACX_site3113],9.49
6,CATACACATACACATACACACGCATAGAAACATACG [CACACA_site8666],9.82
7,CAATATTTTTTATAGGGTACAAAAGATAAAAAAAAA [XGTACX_site6298],9.19
8,AAAAGAAAAAGAAAAACACACATAAATATAAATATA [CACACA_site1879],9.59
9,TATATTTTACTCTTCACACATATACTCAATTTATAT [CACACA_site5357],9.5
10,CATATTTGGAAACACACACACATATTTATATATATA [CACACA_site3569],9.95
11,AAAATTTTCTTTTTATGTACACATAATTTTACCGGA [XGTACX_site5276],9.18
12,AAAAATAAAAAAAATACATGCAATGAAACATTTATT [TGCATGCA_site263],9.28
13,TTACGCGCTTATTACACACACATACAAATAAGGATT [CACACA_site3486],9.76
14,AACAAAATAAAAAAAACATGCAAGAATTCTTATATG [TGCATGCA_site714],9.66
15,ATTTGTATTGTATATGCACACATAGAACACTTTTTT [CACACA_site9373],9.54
16,TTGTGTTTGAAAAAATGTACATGTGTCTTACAACAA [XGTACX_site8371],9.07
17,TTATACAGATATTTAACACACATTTTATAAAGTGCC [CACACA_site4851],9.35
18,GCCTCATCGTAGCAGTGTACGTTTTTTTTTTTTTTT [XGTACX_site8648],9.6
19,ACAATTTATATTATATGTACTTAAAAAGTTCGTAAA [XGTACX_site6421],8.94
20,TTTTATACATAAATATGTACGTATATATAATGAATT [XGTACX_site1337],9.07
21,TTCTAAAATTATATAGTGCAATTATATTAATTTTTC,9
22,ATAACAACCCAATGTTGTACATTTAAATATAACGTA [XGTACX_site7114],9.27
23,TATATATATTTATGTACACACACACCGATAAATAAA [CACACA_site4404],9.93

row,Sequence,gcPBM binding intensity (ln)
1,TATAACATATGACACACACACATACATACACAAAAA [CACACA_site6935],10.2
2,CCTTTTTTTTTTTTATGTACTAAAATAAAATTAGAA [XGTACX_site5956],8.84
3,ACCCTATCTGTAACTACACACCGCATATTGTTTACT [CACACA_site5661],10
4,ATAAATGACAGACACACACACAAAAAAAAAAAACAA [CACACA_site2626],10.2
5,AAATATTTATATGTTACACACTGTTTATAACTTTCT [CACACA_site6752],9.57
6,CTTCTGTAATTATCACGTACATATAATAATTAAAAT [XGTACX_site8973],9.11
7,TTTTTATCTTTGCTGTGTACATAAATAAAAATAACT [XGTACX_site7625],9.22
8,TTTTTTTTGATAAGTTGTACAATGATATATATCCCT [XGTACX_site3560],9.12
9,ATAGTTTAATTTATATGTACATATAATATTGATTTG [XGTACX_site7520],9.36
10,TATATTTTATATTGGTGTACAATTTTTTTTTTTTTT [XGTACX_site4291],9.2
11,AAAAGGTATGTTATACATAGATATGCACATATATGT [TGCATGCA_negctrl_site96],9.29
12,GTAGGATTTTCTTTTGTGCGCAATATAAAAAGAAAA [GTGCAC_site9514],8.85
13,ATTAATATAAAAAGGTAAATGGATGTAATATATATA [XGTACX_negctrl_site2],9.44
14,AAAATTGTTATTTTATGTACTTATATTTATTTATTT [XGTACX_site3478],9.53
15,TTTTTTTTGTGTATTTGTACATAATATATATATATA [XGTACX_site7092],9.45
16,TAATACCATTGTCATGCATGCACATTATTACTCTAA [TGCATGCA_site160],9.32
17,TCGTAATTTTTTTTTATATATTAGGAATTTATAAAA [XGTACX_negctrl_site409],8.94
18,ATATTATATTTCTTTTGTACATATTATATAATATAT [XGTACX_site7198],9.4
19,ATATATATTGTACTAGTGCATATATATACATATATT,9.27
20,ATAAATAAAAACACAAAACAAAACAAAACAAAACAA [CACACA_negctrl_site1257],9.41

# From the supplement of paper PMC11417369
